# Experimental data reported in PubChem BioAssay AID1645882 (National Center for Advancing Translational Sciences (NCATS), 2021).
# The campaign covered roughly 16,000 compounds. About 120 (0.75%) were called active. Inconclusive results (about 4%) are left out. Calls follow the shape of the dose curve; as a rule, active = well fitted inhibition curve with a large enough effect; inconclusive = small, poorly fitted or top-dose-only effect; inactive = no such curve, though single readings can be large or run the other way. The list shows a part of the results.
# Biological target: Rap guanine nucleotide exchange factor 3 (Homo sapiens) (UniProt O95398)
# UniProt O95398, sequence (O95398 whole entry, looked up): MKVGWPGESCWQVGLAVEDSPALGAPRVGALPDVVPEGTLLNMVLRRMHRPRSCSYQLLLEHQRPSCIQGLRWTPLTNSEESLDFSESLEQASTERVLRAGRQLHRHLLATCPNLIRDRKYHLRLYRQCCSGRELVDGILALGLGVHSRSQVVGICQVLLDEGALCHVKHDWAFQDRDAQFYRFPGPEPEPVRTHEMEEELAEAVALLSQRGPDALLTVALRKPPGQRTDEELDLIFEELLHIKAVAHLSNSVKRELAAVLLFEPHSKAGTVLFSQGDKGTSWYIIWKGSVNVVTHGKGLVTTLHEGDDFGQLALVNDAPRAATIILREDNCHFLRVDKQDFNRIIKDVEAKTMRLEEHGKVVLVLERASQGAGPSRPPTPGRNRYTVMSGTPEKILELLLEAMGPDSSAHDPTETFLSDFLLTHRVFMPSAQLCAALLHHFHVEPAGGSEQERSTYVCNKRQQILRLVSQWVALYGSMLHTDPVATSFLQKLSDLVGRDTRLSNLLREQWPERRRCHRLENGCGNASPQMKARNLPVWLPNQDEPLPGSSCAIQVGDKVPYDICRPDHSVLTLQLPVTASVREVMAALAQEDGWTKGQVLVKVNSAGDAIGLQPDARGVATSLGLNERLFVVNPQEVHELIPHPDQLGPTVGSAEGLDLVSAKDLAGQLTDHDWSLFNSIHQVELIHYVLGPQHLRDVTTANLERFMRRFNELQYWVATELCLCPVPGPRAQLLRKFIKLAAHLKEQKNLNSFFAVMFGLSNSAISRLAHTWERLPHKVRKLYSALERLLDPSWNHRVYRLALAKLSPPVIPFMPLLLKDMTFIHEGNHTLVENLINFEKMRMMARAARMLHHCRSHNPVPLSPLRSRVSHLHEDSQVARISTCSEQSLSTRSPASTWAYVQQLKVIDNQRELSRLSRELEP
# Assay: Validation qHTS for antagonist of cAMP-regulated guanine nucleotide exchange factor 3 (EPAC1);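 also: plate controls were DMSO for no effect and ATA control for full effect; nearly all actives have a fitted effect of over 75% in size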
# Conditions: EPAC1 Rap1B-BODIPY-GDP exchange, fluorescence; series mostly up to 150 µM; activity change, negative = inhibition: at the top concentration
# Method in brief: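 Nucleotide exchange followed as fluorescence loss when BODIPY-GDP leaves Rap1B (480 nm excitation, 540 nm emission), read at 5 min intervals over 30 min. Reaction: 100 nM EPAC1, 250 nM RAP1B-BODIPY-GDP, 50 uM GDP; ATA and DMSO define normalization.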
row,Structure (SMILES),"activity change, negative = inhibition"
1,CN1CCN(c2ncc3nc(-c4ccccc4)c(=O)n(C4CC4)c3n2)CC1,inactive: -9.34%
2,COC(=O)C1=C(C)NC(C)=C(C(=O)OCC(C)C)C1c1ccccc1[N+](=O)[O-] (stereo unspecified),inactive: -24.2%
3,CC1(C)CCC(C)(C)c2cc(C(=O)Nc3ccc(C(=O)O)cc3)ccc21,inactive: 15.7%
4,CCOC(=O)N(C(=O)c1ccccc1)c1ccccc1,inactive: 3.78%
5,COc1ccc(C(=O)Nc2ccccc2CCC2CCCCN2C)cc1 (stereo unspecified),inactive: 30.4%
6,CN(C)c1ccc(-c2nccc(NCc3ccccc3)n2)cc1,inactive: 9.7%
7,COc1cccc(CN2C(=O)NC(C)(C3CCN(Cc4cc(Cl)ccc4O)CC3)C2=O)c1OC (stereo unspecified),inactive: -2.44%
8,COc1ccccc1CNc1cc(-c2ccccc2OC)ncn1,inactive: 8.72%
9,CN(C)c1ccc(-c2nc(NCCN3CCOCC3)c3ccccc3n2)cc1,inactive: 10.6%
10,CC(=O)N1CCN(C)CC1,inactive
11,CNc1c2c(nn1C)CCCC2,inactive: 8.58%
12,CN1CCN(c2c(F)cc3c(=O)c(C(=O)O)cn4c3c2SCC4)CC1,inactive: 5.27%
13,COC(=O)[C@H]1[C@H]2C[C@@H]3c4[nH]c5cc(OC)ccc5c4CCN3C[C@H]2C[C@@H](OC(=O)/C=C/c2cc(OC)c(OC)c(OC)c2)[C@@H]1OC,inactive
14,NCCCC[C@H](NC(=O)[C@@H]1CCCN1C(=O)[C@@H]1CSSC[C@H](N)C(=O)N[C@@H](Cc2ccc(O)cc2)C(=O)N[C@@H](Cc2ccccc2)C(=O)N[C@@H](CCC(N)=O)C(=O)N[C@@H](CC(N)=O)C(=O)N1)C(=O)NCC(N)=O,inactive
15,N#Cc1cccc(-c2nccc(NCc3ccccc3)n2)c1,inactive: -19.7%
16,N#CCCn1c(=O)c(-c2ccc(F)cc2)nc2cnc(N3CCOCC3)nc21,inactive: 17.8%
17,CCC(C)[C@H]1COCCS(=O)(=O)N1Cc1ccc(Br)cc1 (stereo partly specified),inactive: -19.4%
18,COC(=O)C1=C(C)NC(C)=C(C(=O)OCCN(C)Cc2ccccc2)C1c1cccc([N+](=O)[O-])c1 (stereo unspecified),inactive
19,COc1ccc(-n2c(CNC(=O)c3cccc4ccccc34)nnc2SC)cc1,inactive: 1.11%
20,Oc1cc(-c2nc3ccccc3s2)cc2c1OCCN(Cc1cccn1-c1ncccn1)C2,inactive: -17.4%
21,CCCCN1CC[C@H]2C=CC[C@@H](C(=O)NCc3cccnc3)[C@H]2C1=O,inactive: 7.66%
22,N#Cc1ccccc1-c1nc(NCCN2CCOCC2)c2ccccc2n1,inactive: 10.7%
23,Cc1ccccc1CNc1ncnc2c1ncn2[C@@H]1O[C@H](CO)[C@@H](O)[C@H]1O,inactive: 15.3%
24,O=C(c1cnccn1)N1CCC2(CCN(Cc3ccncc3)CC2)CC1,inactive: 20.9%
25,Cc1noc(C)c1C(=O)N1CCC2(CCCN(c3ccccc3)C2)CC1,inactive: 12.6%
26,COC(=O)N1CCC[C@@]2(CCN(C(=O)Nc3cccc(C#N)c3)C2)C1,inactive: 4.61%
